# Laboratory results published in the supplement of paper PMC3724861.
# This is one part of the list.
# Tested on: T1, Caupolican (Caup) homeodomain DNA-binding domain
# T1 sequence: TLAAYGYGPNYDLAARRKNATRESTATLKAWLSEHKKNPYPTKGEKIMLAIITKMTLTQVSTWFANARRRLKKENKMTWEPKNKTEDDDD
# Test: PBM E-score (8-mer, recovered from the published 9-mer minima) (E-score (dimensionless, -0.5 to 0.5)); Drosophila protein; higher = stronger relative binding preference, active = 0.31 or more
# Procedure, shortened: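 Caup's homeodomain DNA-binding domain (residues 214-303) was produced by in vitro transcription and translation and applied at 100 nM to custom-designed protein binding microarrays. Each value is an enrichment score giving relative binding preference for a short DNA word; higher means stronger. Published 9-mer scores were the minimum of their two constituent 8-mer scores, and the 8-mer values were recovered from those minima. A cutoff of 0.31 marks candidate binding sequences.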
row,Sequence,PBM E-score
1,CTGTGAAG,inactive: -0.0616
2,CCTGTTAC,inactive: 0.254
3,CGAACAGC,inactive: 0.0486
4,CCCTGTGA,inactive: -0.0613
5,CGATCTAC,inactive: 0.0208
6,GTTGCTAA,inactive: 0.115
7,AATCAAAC,inactive: 0.199
8,GGTTCATA,inactive: 0.0948
9,CCCCCCGG,inactive: -0.377
10,AGGCATCC,inactive: -0.0572
11,ATAACACG,active: ≥ 0.334
12,ATTTCCCA,≥ 0.0591
13,GGAAGTTA,inactive: 0.0728
14,ACTACAAT,inactive: 0.19
15,GGCGCGCC,inactive: -0.246
16,CTAGCCGC,inactive: -0.223
17,CCACTTAC,inactive: 0.062
18,AGAGATCC,inactive: -0.0181
19,AAGGCTAT,inactive: -0.0925
20,CCCGAAAG,inactive: -0.112
21,CATGTGGC,inactive: 0.0747
22,AGGCAGAA,inactive: -0.0172
23,AGATCACA,inactive: 0.134
24,ACGATGGG,inactive: -0.0434
25,CTATAACA,inactive: 0.257

row,Sequence,PBM E-score
1,AGATTCCC,inactive: -0.109
2,CCCCTCCA,inactive: -0.184
3,ACATGAAT,active: 0.336
4,CGCTCTCC,inactive: -0.179
5,AACTGCTC,inactive: -0.0403
6,CCTGGGGC,inactive: -0.352
7,CATCTGCC,inactive: -0.082
8,GCCCTCAC,inactive: -0.175
9,CTCCGCAC,inactive: -0.157
10,CATTTCAC,inactive: 0.0231
11,TAATCAGA,inactive: 0.129
12,CCATTATC,inactive: 0.0795
13,CCAGTCCG,inactive: -0.149
14,GGGTTACC,inactive: -0.093
15,GTTGGCTA,inactive: -0.089
16,ACGCGCCC,inactive: -0.159
17,AACAGATC,inactive: 0.172
18,GTCTTAGA,inactive: 0.00318
19,CGTGCAAC,inactive: 0.079
20,GCTGCTAA,inactive: -0.0431
21,AATACAGG,inactive: 0.17
22,ATAGCCTA,≥ 0.029
23,ATAACGGA,inactive: 0.129
24,AGGCTTAT,inactive: -0.0948
25,GATGGTAC,inactive: 0.138

row,Sequence,PBM E-score
1,ACAACCCC,inactive: 0.115
2,ATCAGATC,inactive: 0.0435
3,CAATTGTA,inactive: 0.193
4,AGCACACT,inactive: 0.0205
5,AAGCGGTC,inactive: -0.127
6,ATCCAGTC,inactive: -0.00608
7,GCGGTACA,inactive: 0.173
8,ACGTTCAG,inactive: -0.0385
9,AACGAGTA,inactive: 0.122
10,CGTGGATA,inactive: 0.0269
11,ATCAAACC,inactive: 0.0467
12,GCATAGCC,inactive: -0.0916
13,AGACTACC,inactive: 0.0412
14,GGTTAATA,inactive: 0.0577
15,CAGCTGGG,inactive: -0.0926
16,CTGCCGTC,inactive: -0.128
17,GAAATCCA,inactive: 0.0118
18,CTTCGCTC,inactive: -0.146
19,ATAGACCG,inactive: -0.0331
20,GACTTTTA,inactive: 0.0139
21,CTGTTGCC,inactive: -0.0424
22,AAGTGATT,inactive: 0.112
23,ATTCCTCC,inactive: -0.0176
24,CTAACGAA,inactive: -0.161
25,CTGTTCGA,inactive: 0.126

row,Sequence,PBM E-score
1,GGGTGAAC,inactive: -0.0277
2,ATAGCCCG,inactive: -0.155
3,GTGTTTAA,inactive: 0.262
4,ACGATTAG,inactive: 0.124
5,GCAAAAGA,inactive: -0.129
6,ATACGCGG,inactive: -0.0948
7,AGGGACTG,inactive: -0.111
8,AGCGCGCC,inactive: -0.311
9,ATGAGCAA,inactive: 0.127
10,AAGACGAT,inactive: 0.0898
11,GCGTACTA,inactive: 0.114
12,CGAAGTGA,inactive: 0.0167
13,ACAAGTGA,inactive: 0.302
14,CACTAACC,inactive: 0.0258
15,GACACCCC,inactive: -0.0671
16,AGGACAGC,inactive: 0.0177
17,GCATAGAC,inactive: 0.0136
18,AGAAACAT,inactive: 0.285
19,ACGTTCGG,inactive: -0.177
20,GCACGAGC,inactive: -0.154
21,AGTCTACC,inactive: -0.0715
22,ACTGTTAG,inactive: -0.0526
23,GCTCCGCC,inactive: -0.368
24,AGGGACCA,≥ -0.0946
25,CCGGTCAC,inactive: -0.0687

row,Sequence,PBM E-score
1,AGAAACTC,inactive: -0.014
2,CTCAACTC,inactive: -0.0748
3,ACCGCGTA,inactive: -0.0231
4,ATACAGGA,inactive: 0.13
5,GCTACTCA,inactive: 0.0547
6,AACGATCT,inactive: -0.00898
7,ACCATCGG,inactive: -0.0896
8,AGCGCACT,inactive: -0.125
9,CCAACGGA,inactive: -0.128
10,CTGGTGGA,inactive: -0.052
11,GGCGCCCA,inactive: -0.232
12,CCGTAAAG,inactive: -0.108
13,AAATCATG,inactive: 0.253
14,GAAAATAC,inactive: 0.0139
15,CCTTGTGC,inactive: 0.0734
16,CGCCGAGC,inactive: -0.214
17,GAGGTTAC,inactive: 0.0294
18,TGCCCCAA,≥ -0.0515
19,CGTAGACA,inactive: 0.122
20,ATTCAGCA,≥ 0.0918
21,CTTTTCAA,inactive: 0.00741
22,CAAAGAGC,inactive: -0.0981
23,GGAGCCCC,inactive: -0.353
24,CGGGGTTC,inactive: -0.236
25,CAAATACG,inactive: 0.0614

row,Sequence,PBM E-score
1,AACGAATG,inactive: 0.00089
2,CAGTATAC,inactive: 0.0966
3,AAAGGGAA,inactive: -0.0223
4,CTAAATGC,inactive: -0.0311
5,GGGGGAAA,inactive: -0.24
6,ATTAGAAG,inactive: 0.0339
7,CAACAGAA,inactive: 0.14
8,CAGGCCAG,inactive: -0.0761
9,CCAGGAGG,inactive: -0.118
10,CAGACAAG,inactive: 0.21
11,GATGGTTA,inactive: 0.0754
12,AAATCGAA,inactive: 0.0984
13,ATCCGAGG,inactive: -0.0206
14,AGGTTGCA,≥ 0.0564
15,CCAAAATA,inactive: -0.0076
16,ATGCGAAG,inactive: -0.00808
17,CATGTCAC,active: 0.446
18,ATACTGAG,inactive: 0.0973
19,TCCCCCGA,inactive: -0.215
20,AAAGGTAC,inactive: 0.12
21,AATCGATG,inactive: 0.168
22,GCAAGTCC,inactive: -0.0418
23,ATTACCAA,inactive: 0.0838
24,CCGCTACA,inactive: 0.0971
25,AACATGCC,inactive: 0.302

row,Sequence,PBM E-score
1,GGTACCCA,inactive: -0.0718
2,AAGGGCCG,inactive: -0.143
3,AGACCATA,inactive: 0.0423
4,CTTAGTGA,inactive: 0.0224
5,ATGACTCC,inactive: 0.0128
6,CGAGCCGA,inactive: -0.0434
7,CTCGGGCA,inactive: -0.102
8,AGTCACCG,inactive: -0.0849
9,CAAGAAAA,inactive: 0.0892
10,CAATGGAG,inactive: -0.0643
11,TACCCGCA,≥ 0.0197
12,AGAAAGCC,inactive: -0.132
13,CGTTCTAC,inactive: 0.0361
14,CTCTCCTC,inactive: -0.078
15,ACCCGCGG,inactive: -0.108
16,AGCCTCGA,inactive: -0.0145
17,GCTTACAA,inactive: 0.22
18,AAAGGGAT,inactive: 0.0307
19,CCCTGAAG,inactive: -0.207
20,GACTTGAA,inactive: -0.0234
21,TAATGTAA,active: 0.315
22,AGCAGCCA,inactive: -0.0182
23,AGAAACCC,inactive: -0.0509
24,ATGTACCA,active: 0.36
25,GCCAGCCA,inactive: -0.264

row,Sequence,PBM E-score
1,CCCTGGGA,inactive: -0.259
2,CAACTACA,inactive: 0.287
3,GATCGATC,inactive: 0.00221
4,CACTCGAG,inactive: -0.0613
5,GATGTGAC,inactive: 0.0986
6,CCTCCTCC,inactive: -0.149
7,CCTGGAGA,inactive: -0.174
8,GACATGGA,active: 0.345
9,CGGTGGAC,inactive: -0.0807
10,AGTTTTGG,inactive: -0.0105
11,AGCTCAGG,inactive: -0.116
12,CCCCATAC,inactive: -0.19
13,CCTTGTAC,active: 0.399
14,CGCTGATC,inactive: -0.0501
15,AAATCCGA,inactive: 0.0288
16,CGTGGTAG,inactive: -0.022
17,GTGACCTA,inactive: 0.0131
18,ACGCAGCT,inactive: -0.0676
19,AGCAATTG,inactive: 0.0475
20,GCGGTCTA,inactive: -0.0746
21,CCAAGGTC,inactive: -0.0905
22,AGCGTATA,inactive: 0.0189
23,AAGCCGGC,inactive: -0.175
24,ATATACTC,inactive: 0.0689
25,CACTATAA,inactive: 0.118

row,Sequence,PBM E-score
1,CATCCAGG,inactive: -0.0977
2,GGAACCAC,inactive: -0.00107
3,AATACTAA,inactive: 0.0875
4,CCAAGAAA,inactive: 0.0351
5,TGCACGCA,inactive: -0.0359
6,CATGCGTA,inactive: 0.11
7,AGGGCATC,inactive: -0.158
8,AACGTTCA,inactive: 0.0202
9,ATCAAAAT,inactive: 0.131
10,GGTAGGAA,inactive: -0.0475
11,TAACCGAA,inactive: 0.00092
12,CGCTTAAG,inactive: -0.0985
13,ACGGACTA,inactive: 0.043
14,AAACAGAC,inactive: 0.158
15,GGTGAATA,inactive: -0.0398
16,CCGTCGCC,inactive: -0.246
17,AAACCCAC,inactive: -0.0514
18,CGAGTCCC,inactive: -0.151
19,CAATAGGG,inactive: -0.0976
20,ACCTAGCG,inactive: -0.129
21,AGGGGCGG,inactive: -0.247
22,ATAGCTGG,inactive: -0.0765
23,AAATTTGC,inactive: 0.022
